Measurements reported in PubChem BioAssay AID264 (DTP/NCI, 2004).
Results filed as inconclusive are left out. The source holds more than one record for some entries. The other results are left out here. The source may hold further records. The records of an entry repeat one measurement in other runs, samples, wells, individuals or studies. Marks such as (2×) stand for listed records that agree.

Test system: nude mice, LX-1 lung xenograft intrarenal, tumor weight T/C
Assay: NCI In Vivo Anticancer Drug Screen. Data for tumor model Human Lung LX-1 Xenograft (intrarenal inoculation) in NU/NU Swiss (nude) mice
Details: endpoint: mean tumor weight change, higher = larger tumour
In short: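 Compound-treated mice carrying transplanted tumors were compared with vehicle-treated controls. Tumor size was the measured end point, and the value is the treated-group measurement divided by the control-group measurement (T/C).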

[1] = dose: 200.0 mg/kg/injection, schedule: Q01DX010 (sc), vehicle: saline with Tween-80
[2] = dose: 300.0 mg/kg/injection, schedule: Q04DX003 (sc), vehicle: water
[3] = dose: 300.0 mg/kg/injection, schedule: Q04DX003 (sc), vehicle: saline with Tween-80
[4] = dose: 1.5 mg/kg/injection, schedule: Q01DX010 (sc), vehicle: saline

ClCC[N+]12CC[N+](CCCl)(CC1)C2
T/C (dose: 100.0 mg/kg/injection, schedule: Q01DX010 (sc), vehicle: saline with Tween-80): 27 % of control and 96 % of control
T/C [1]: 35 % of control and 115 % of control
T/C [2]: 44 % of control and 113 % of control

CNC(=O)OCc1c(COC(=O)NC)c(C)n(-c2ccc(OC)cc2)c1C
T/C (dose: 100.0 mg/kg/injection, schedule: Q01DX010 (sc), vehicle: Klucel (hydroxypropylcellulose) (HPC)): 2 % of control, 32 % of control, 58 % of control
T/C (dose: 100.0 mg/kg/injection, schedule: Q04DX003 (sc), vehicle: Klucel (hydroxypropylcellulose) (HPC)): 43 % of control and 94 % of control
T/C (dose: 200.0 mg/kg/injection, schedule: Q01DX010 (sc), vehicle: Klucel (hydroxypropylcellulose) (HPC)): 1 % of control, 3 % of control, 32 % of control
T/C (dose: 200.0 mg/kg/injection, schedule: Q04DX003 (sc), vehicle: Klucel (hydroxypropylcellulose) (HPC)): 25 % of control and 102 % of control
T/C (dose: 400.0 mg/kg/injection, schedule: Q01DX010 (sc), vehicle: Klucel (hydroxypropylcellulose) (HPC)): -59 % of control and 60 % of control
T/C (dose: 400.0 mg/kg/injection, schedule: Q04DX003 (sc), vehicle: Klucel (hydroxypropylcellulose) (HPC)): 44 % of control and 76 % of control

Nc1ncn(C2OC(CO)C(O)C2O)c(=O)n1 (stereo not given)
T/C (dose: 400.0 mg/kg/injection, schedule: Q04DX003 (sc), vehicle: suspension in saline): 33 % of control and 60 % of control

CCCCCCCCCCCCCCCC(=O)Nc1ccn(C2OC(CO)C(O)C2O)c(=O)n1 (stereo not given)
T/C [2]: 7 % of control and 37 % of control
T/C (dose: 600.0 mg/kg/injection, schedule: Q04DX003 (sc), vehicle: water): -34 % of control, 20 % of control, 39 % of control
T/C (dose: 1200.0 mg/kg/injection, schedule: Q04DX003 (sc), vehicle: water): -24 % of control and 28 % of control

COC(=O)Nc1nc2ccc(C3(c4ccc(F)cc4)OCCO3)cc2[nH]1
T/C [3]: 74 % of control and 117 % of control
T/C (dose: 600.0 mg/kg/injection, schedule: Q04DX003 (sc), vehicle: saline with Tween-80): 50 % of control and 93 % of control

Cc1c(N)nc(C(CC(N)=O)NCC(N)C(N)=O)nc1C(=O)NC(C(=O)NC(C)C(O)C(C)C(=O)NC(C(=O)NCCc1nc(-c2nc(C(=O)NCCCNC(C)c3ccccc3)cs2)cs1)C(C)O)C(OC1OC(CO)C(O)C(O)C1OC1OC(CO)C(O)C(OC(N)=O)C1O)c1cnc[nH]1 (stereo not given)
T/C (dose: 8.0 mg/kg/injection, schedule: Q01DX010 (sc), vehicle: saline): 11 % of control and 48 % of control

S=c1nc[nH]c2nc[nH]c12
T/C (dose: 12.5 mg/kg/injection, schedule: Q01DX010 (sc), vehicle: Klucel (hydroxypropylcellulose) (HPC)): 40 % of control, 67 % of control, 68 % of control
T/C (dose: 25.0 mg/kg/injection, schedule: Q01DX010 (sc), vehicle: Klucel (hydroxypropylcellulose) (HPC)): 47 % of control and 79 % of control

CO[C@H](C(=O)[C@@H](O)[C@@H](C)O)[C@@H]1Cc2cc3cc(OC4CC(OC5CC(O)C(O)C(C)O5)C(O)C(C)O4)c(C)c(O)c3c(O)c2C(=O)[C@H]1OC1CC(OC2CC(OC3CC(C)(O)C(O)C(C)O3)C(O)C(C)O2)C(O)C(C)O1 (stereo not given in full)
T/C (dose: 0.5 mg/kg/injection, schedule: Q01DX010 (sc), vehicle: saline): 77 % of control and 113 % of control
T/C (dose: 1.0 mg/kg/injection, schedule: Q01DX010 (sc), vehicle: saline): -92 % of control and 8 % of control

O=C(O)CCCc1ccc(N(CCCl)CCCl)cc1
T/C (dose: 4.0 mg/kg/injection, schedule: Q01DX010 (sc), vehicle: saline with Tween-80): 25 % of control and 155 % of control
T/C (dose: 8.0 mg/kg/injection, schedule: Q01DX010 (sc), vehicle: saline with Tween-80): 5 % of control and 49 % of control

CCCCCCCCCCCCCCCC(=O)OCC1OC(n2ccc(N)nc2=O)C(O)C1O (stereo not given)
T/C (dose: 75.0 mg/kg/injection, schedule: Q04DX003 (sc), vehicle: saline with Tween-80): 14 % of control, 29 % of control, 51 % of control
T/C (dose: 150.0 mg/kg/injection, schedule: Q04DX003 (sc), vehicle: saline with Tween-80): -17 % of control and 14 % of control (2×)

COc1cccc2c1C(=O)c1c(O)c3c(c(O)c1C2=O)C[C@@](O)(C(=O)CO)C[C@@H]3OC1CC(N)C(OC)C(C)O1 (stereo not given in full)
T/C [4]: 10 % of control, 15 % of control, 124 % of control

CNC=O
T/C (dose: 800.0 mg/kg/injection, schedule: Q01DX010 (sc), vehicle: saline): -50 % of control and -10 % of control

Oc1ccc(SCc2ccc(NCc3ccccc3)cc2)cc1
T/C [1]: 67 % of control and 107 % of control

Cc1cc(NCCCCCCCCNc2cc(C)nc3cc(N(C)C)ccc23)c2ccc(N(C)C)cc2n1
T/C (dose: 75.0 mg/kg/injection, schedule: Q01DX010 (sc), vehicle: saline with Tween-80): 45 % of control and 104 % of control

CN1CCN(CCCN2c3ccccc3Sc3ccc(C(F)(F)F)cc32)CC1
T/C (dose: 25.0 mg/kg/injection, schedule: Q01DX010 (sc), vehicle: saline): 86 % of control and 188 % of control
T/C (dose: 200.0 mg/kg/injection, schedule: Q01DX010 (sc), vehicle: saline): 13 % of control, 62 % of control, 173 % of control

N=c1ccn2c(n1)OC1C(O)C(CO)OC12 (stereo not given)
T/C (dose: 400.0 mg/kg/injection, schedule: Q04DX003 (sc), vehicle: saline): 27 % of control and 60 % of control

COc1ccc(S(=O)(=O)N=N/C=C2\C=CC=CN2O)cc1OC
T/C [3]: 38 % of control and 120 % of control

COC1C(O)CC(OC2CC(OC3CC(O[C@@H]4C(=O)c5c(cc6cc(OC7CC(OC8CC(O)C(O)C(C)O8)C(O)C(C)O7)c(C)c(O)c6c5O)C[C@H]4[C@H](OC)C(=O)[C@@H](O)[C@@H](C)O)OC(C)C3O)OC(C)C2O)OC1C (stereo not given in full)
T/C (dose: 0.75 mg/kg/injection, schedule: Q01DX010 (sc), vehicle: saline): -88 % of control and 42 % of control
T/C [4]: -51 % of control, -29 % of control, 2 % of control
T/C (dose: 3.0 mg/kg/injection, schedule: Q01DX010 (sc), vehicle: saline): -66 % of control and 1 % of control
